These results are taken from publication PMC12136788.

This is one part of the list.

The chains are these.
B1: chr21:25758092:25758193:+|CDS|ENSG00000154727|unk|total|mutant (ssRNA)
RNA: GGGAGUUCUACAGUCCGACGAUCGAAUUCAGCAUGACCGAUACCGACCUCACCACACUCAACAUUUCGGGGAGAGAAUUAUGCCGUCUCAACCAAGAAGAUUUUUUUCAGCGGGUUCCUCGGGGAGAAAUUCUCUGGAGUCAUCAACAGAGGAUUGAGCAUCA
B2: chr12:6238009:6238110:+|3pUTR|ENSG00000010278|msi1_unk|total|mutant (ssRNA)
RNA: GGGAGUUCUACAGUCCGACGAUCAUAAAAGCUGAAGUUACUUUAUGUUUGUCUUUUAAUGCUUCAUUCAAUAUUGACAUUUGCCGUUGAGCGGGGGGUUUGGUUUGCUUUGGUUUAUAUUUUUUCAGUUGUUUGUUUUUGCUUCAACAGAGGAUUGAGCAUCA
B3: chr4:124666837:124666938:-|3pUTR|ENSG00000151458|msi1|FALSE|unique (ssRNA)
RNA: GGGAGUUCUACAGUCCGACGAUCAAUGAUUUCUUGGCAGUUUAAAAAAAAUAUUUUAUAGUAGUUUAGGGAGCUGCUUUAAGUAGUUUAAAUCUGGAUUUUCCCAGUAGAAUUCUUCUCAUCUCUGGCUAAACAUGUCAGAACCAACAGAGGAUUGAGCAUCA
B4: ENSG00000133687:stop:overlap|stop_codon|ENSG00000133687|stop_codon|NA|stop_codon (ssRNA)
RNA: GGGAGUUCUACAGUCCGACGAUCUUGCCAAAUUGGAUCGCCUAGAAAAACGAUUACAAGAAGUUCGAGAAAAGGAUCAAACAUAGCACCACCGUCUGACCCAACCUCAUAGGAUAAUGUGGUGCCUCUGAAAGGGGAGUGAUGCAACAGAGGAUUGAGCAUCA
B5: chr14:94062441:94062542:-|CDS|ENSG00000089737|msi1|FALSE|unique (ssRNA)
RNA: GGGAGUUCUACAGUCCGACGAUCCCUCCAAGUAACACCGAAGCACCACCUGGAGAGACCAGAACUGAGGCCGGAGCUGAGACUAGAUCACCAGGCAAGGCUGAAGCUGAGUCUGAUGCAUUGCCUGACGAUACUGUAAUUGAGCAACAGAGGAUUGAGCAUCA
B6: chr7:88283957:88284065:-|CDS|ENSG00000127954|unk|FALSE|unique (ssRNA)
RNA: GGGAGUUCUACAGUCCGACGAUCCAGUGGUGCAGAAGUCUUGAGCUAUUCAGAAGCAGCCAAGAAGUCUGGCAUCAUAAUCAUAGCAAUCCACAGAGAGCAUUAUGAUUUUCUCACAGAAUUAACUGAGGUUCUCAAUGGAAACAACAGAGGAUUGAGCAUCA
B7: ENSG00000198589:be:win_2001|CDS|ENSG00000198589|bound_else_gene|NA|bound_elsewhere_windowed (ssRNA)
RNA: GGGAGUUCUACAGUCCGACGAUCGAAGGAUUCUGGAGUAAAGGAAGAUGAAUUACAGGCCAUUCUUAAUUACCUACUGACUAUGCAUGAGGAUGACAAUCUAAUGGAUGUCCUACAGCUGCUUGUUGCAUUAAUGUCAGAACACAACAGAGGAUUGAGCAUCA
B8: chr1:24839915:24840022:+|CDS|ENSG00000169504|unk|FALSE|bound_elsewhere (ssRNA)
RNA: GGGAGUUCUACAGUCCGACGAUCACCCUGCAGAAACUGGAUGAAUAUCUGAAUUCUCCUCUCCCUGAUGAAAUUGAUGAAAAUAGUAUGGAGGACAUAAAGUUUUCUACACGUAAAUUUCUGGAUGGCAAUGAAAUGACAUUACAACAGAGGAUUGAGCAUCA
B9: chr2:159433012:159433119:-|CDS|ENSG00000123636|unk|FALSE|unique (ssRNA)
RNA: GGGAGUUCUACAGUCCGACGAUCGCACUUACUACCAAAACUAAAAUGCAGAGCAAGAUUAAUGAAAACAUUGCUGCUGCAAGUAGCACCCCUUUUUCCUCACCUGUAAAUCUGAGUACAAGUGGGAGAAGAACCCCUGGCAAUCAACAGAGGAUUGAGCAUCA
B10: chr1:54850123:54850236:-|3pUTR|ENSG00000116133|msi1_unk|FALSE|overlapping (ssRNA)
RNA: GGGAGUUCUACAGUCCGACGAUCGCCUCCAACCCUAAGCCACUGGGACGGUGGCCAGAGAUGCCAGCAGCCUCUGUCGCCCUUAGUCAUAUAACCAAAAUCCAGACCUUAUCCACAACCCGGGGCUUGGAAAGGAAGGUAUUUCAACAGAGGAUUGAGCAUCA
B11: chr1:42176760:42176861:-|3pUTR|ENSG00000198815|msi1|total|mutant (ssRNA)
RNA: GGGAGUUCUACAGUCCGACGAUCGUCGCUCAGAUGUCCUUUGAAGUGGGAGGGAAUCAAUCCGGGGAUAAUUUCAAAUGGAACCGAGUAUUUUGAUAUUGUUCAUUCAGAGGGUGAUGUGUACAUAUCUAUAUUGUAUAUAUGCAACAGAGGAUUGAGCAUCA
B12: chr17:82614561:82616025:-|three_prime_utr|ENSG00000141580|control|control|control (ssRNA)
RNA: GGGAGUUCUACAGUCCGACGAUCCUACAAAUUCCUGUUCAACCCCAAGGGGGAGUGCAUCCGAGAUGUCUACGCGCAGUUUCUAGAGAUGACCGAUGACAAGCUGUGACUCCAGCUGGGGGCGCCACAGCACCCACCACCUGCCAACAGAGGAUUGAGCAUCA
B13: chr2:216675367:216675485:-|3pUTR|ENSG00000115461|msi1|total|mutant (ssRNA)
RNA: GGGAGUUCUACAGUCCGACGAUCGCCAGGCAGAGGCCAGCCCUCCGUGGUGCACACAGCACGCGCCUCAGUCCAUCCCAUUUCCGUCUUUAAACCCUCAGGAAGUCACAGUCUCCGGACACCACACCACAUGAGCCCAACAGGCAACAGAGGAUUGAGCAUCA
B14: chr12:56162362:56162467:-|3pUTR|ENSG00000139613|unk|FALSE|unique (ssRNA)
RNA: GGGAGUUCUACAGUCCGACGAUCGGUUCCUCCCACCAGGCCCUUUGUUCCUCAUGUCCCCAUGUUUCUCUCCCUCUGCGUCUUAGCACCUUUCUUCUGUUCAAAGUUUUCUGUAAAUUUUCUCUUUUUUUCUUUCUUUCUUUUCAACAGAGGAUUGAGCAUCA

For this experiment, the target named is MSI1 full-length (mouse, UniProt Q61474 1-362). Kind of experiment: nsRBNS (natural sequence RNA bind-n-seq); RBNS binding buffer (assumed for nsRBNS): 25 mM Tris pH 7.5, 150 mM KCl, 3 mM MgCl2, 0.01% Triton X-100, 500 ug/ml BSA, 20 U/ml SUPERase-In, 4 C; UNK is unkempt and MSI1 is Musashi-1; names of the RNAs are library labels; protein concentration not given here; high values mean tight binding.
UniProt Q61474, sequence (Q61474 whole entry): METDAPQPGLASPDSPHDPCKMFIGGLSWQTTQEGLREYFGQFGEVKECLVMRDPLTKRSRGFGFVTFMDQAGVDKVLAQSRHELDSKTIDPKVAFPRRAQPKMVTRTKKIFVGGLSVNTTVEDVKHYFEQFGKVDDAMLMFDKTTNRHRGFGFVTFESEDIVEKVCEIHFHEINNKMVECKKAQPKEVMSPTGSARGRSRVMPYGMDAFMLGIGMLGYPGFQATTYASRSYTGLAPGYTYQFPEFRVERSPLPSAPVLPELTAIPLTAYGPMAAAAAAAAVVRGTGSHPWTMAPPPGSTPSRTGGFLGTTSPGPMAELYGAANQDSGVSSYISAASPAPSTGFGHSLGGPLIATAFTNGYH
B1: the binding signal is 0.43 enrichment R.
To B2 belongs 1.21 enrichment R; to B3, 23.2 enrichment R; to B4, 0.277 enrichment R.
To B5 belongs 0.372 enrichment R.
For B6 the value was 0.311 enrichment R; for B7, 0.483 enrichment R.
As for B8, the binding signal worked out at 0.295 enrichment R.
The molecule B9 had a binding signal of 0.413 enrichment R.
For B10 the value was 0.86 enrichment R.
B11: the binding signal was found to be 0.79 enrichment R.
For B12 the value was 0.533 enrichment R; for B13, 0.675 enrichment R.
For B14 the value was 0.987 enrichment R.
